Laboratory results as given in publication PMC4336329 (PLoS ONE, 2015).
Screen size: about 310,000 compounds; about 2,200 (0.71%) showed an effect of 50% or more. Effects have a minus sign here. The list shows a part of the results.

What follows are compounds tested against human ether-à-go-go-related gene (hERG) potassium channel (human, UniProt Q12809) (assay: primary screen, population patch clamp on CHO cells stably expressing hERG).
Chain of human ether-à-go-go-related gene (hERG) potassium channel (Q12809 whole entry, looked up): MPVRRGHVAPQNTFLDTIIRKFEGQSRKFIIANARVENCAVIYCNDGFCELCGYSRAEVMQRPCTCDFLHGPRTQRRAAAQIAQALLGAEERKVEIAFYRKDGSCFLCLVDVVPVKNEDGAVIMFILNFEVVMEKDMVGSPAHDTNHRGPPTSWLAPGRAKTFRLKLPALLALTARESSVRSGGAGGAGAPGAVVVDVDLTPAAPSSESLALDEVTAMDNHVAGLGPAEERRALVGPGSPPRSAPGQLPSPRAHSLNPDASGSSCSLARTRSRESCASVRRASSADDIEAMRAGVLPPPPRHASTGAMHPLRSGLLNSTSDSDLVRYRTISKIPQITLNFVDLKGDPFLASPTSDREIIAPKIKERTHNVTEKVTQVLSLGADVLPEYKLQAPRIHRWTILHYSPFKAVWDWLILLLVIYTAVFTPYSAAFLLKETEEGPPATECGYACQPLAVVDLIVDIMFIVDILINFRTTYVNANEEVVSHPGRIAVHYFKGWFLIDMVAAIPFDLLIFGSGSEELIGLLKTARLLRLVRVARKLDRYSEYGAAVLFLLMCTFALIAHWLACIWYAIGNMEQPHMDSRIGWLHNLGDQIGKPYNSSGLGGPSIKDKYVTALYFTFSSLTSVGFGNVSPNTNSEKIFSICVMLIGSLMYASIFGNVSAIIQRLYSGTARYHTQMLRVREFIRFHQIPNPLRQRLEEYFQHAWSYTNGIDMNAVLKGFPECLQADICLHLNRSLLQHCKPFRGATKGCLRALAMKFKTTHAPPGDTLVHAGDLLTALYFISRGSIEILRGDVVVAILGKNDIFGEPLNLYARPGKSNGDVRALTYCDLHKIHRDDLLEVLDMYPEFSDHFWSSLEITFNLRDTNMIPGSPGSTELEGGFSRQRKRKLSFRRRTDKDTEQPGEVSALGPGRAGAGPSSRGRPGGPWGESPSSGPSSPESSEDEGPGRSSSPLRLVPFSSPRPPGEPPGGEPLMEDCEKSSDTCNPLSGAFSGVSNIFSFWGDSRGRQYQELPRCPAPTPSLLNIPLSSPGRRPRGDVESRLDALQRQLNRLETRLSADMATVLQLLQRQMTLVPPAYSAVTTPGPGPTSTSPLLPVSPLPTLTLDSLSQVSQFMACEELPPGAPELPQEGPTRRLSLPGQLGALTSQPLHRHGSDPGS

| Structure (SMILES) | hERG current change (%, negative = inhibition) at 1uM |
| --- | --- |
| COc1ccccc1CNC(=O)CSCc1cnn(-c2ccccc2)c1-n1cccc1 | -1.84% |
| O=C(CCc1nc(-c2ccccc2)c(-c2ccccc2)o1)OCc1ccc(Cl)cc1 | 9.62% |
| O=C(c1cnccn1)N1CCN(C/C=C/c2ccccc2)CC1 | 9.98% |
| CCOC(=O)c1sc2nc(C)nc(NCc3ccc(F)cc3)c2c1C | 17.8% |
| Nc1cc(=O)[nH]c(SCC(=O)Nc2ccc3c(c2)CCC3)n1 | 6.83% |
| COc1ccc([N+](=O)[O-])cc1NC(=O)CCN1CCN(c2ccccc2OC)CC1 | 6.82% |
| COc1ccccc1NC(=O)NNC(=O)CN1C(=O)COc2ccccc21 | 15.7% |
| Cn1c(=O)oc2cc(S(=O)(=O)NC3CCCc4ccccc43)ccc21 (stereo not shown) | -6.46% |
| Cc1ccc(Cl)cc1NC(=S)NCc1cccn1C | 17.9% |
| CC1CCN(CC(=O)Nc2cccc([N+](=O)[O-])c2)CC1 | 13.6% |
| Cc1cccc(CN2CCc3c([nH]c4ccccc34)C2CC(C)C)n1 (stereo not shown) | 10.8% |
| CCOc1ccc(C(=O)NCC(=O)OCC(=O)N2CCCC2)cc1 | 13.2% |
| N/C(=N\OC(=O)Nc1ccccc1)c1ccno1 | 10.3% |
| C=C(C)CNC(=S)N/N=C(\C)c1ccc(Cl)s1 | 12.1% |
| NC(=O)CCS(=O)(=O)CCN1CCN(S(=O)(=O)c2ccc3c(c2)CCC3)CC1 | 4.14% |
| N#Cc1cc2c(nc1SCc1ccc(Cl)nc1)CCCCC2 | 6.05% |
| Cc1csc(=O)n1CC(=O)OCC(=O)Nc1ccc(Cl)cc1F | 8.55% |
| CC1CC1C(=O)OCC(=O)NC(=O)NCc1ccco1 (stereo not shown) | 4.71% |
| CCc1ccc(CN2CCCC(CCC(=O)N3CCN(c4ccccn4)CC3)C2)o1 (stereo not shown) | -34.1% |
| Nc1cc(Cl)ccc1C(=O)OCC(=O)NC1CCCCCCC1 | 5.48% |

| Structure (SMILES) | hERG current change (%, negative = inhibition) at 1uM |
| --- | --- |
| CC1Cc2ccccc2N1C(=O)CSc1nnc(NC(=O)Cc2cccs2)s1 (stereo not shown) | 3.74% |
| N/C(=N/OC(=O)c1ccc(Cl)cc1)c1ncc([N+](=O)[O-])s1 | 14% |
| O=C(NCc1cccnc1)C1CCN(C(=O)c2ccc(Cl)cc2Cl)CC1 | 11% |
| Cc1ccccc1C(=O)Nc1cccc(NC(=O)c2cccnc2)c1 | 5.01% |
| CCc1cc(=O)oc2cc(OCC(=O)NCCCn3ccnc3)ccc12 | 13.5% |
| Cc1ccccc1OCc1nc2ccccc2c(=O)n1/N=C/c1ccco1 | 11.4% |
| CCOc1ccccc1Nc1cc(C)nc2nc(C)nn12 | 0.639% |
| NN=C(c1cccc([N+](=O)[O-])c1)c1cccc([N+](=O)[O-])c1 | 8.63% |
| COCCNC(=O)NC(=O)COC(=O)Cc1ccc2c(c1)OCCO2 | -2.77% |
| O=C1OCC2=C1C(c1ccc(F)cc1)CC(=O)N2c1ccccc1 (stereo not shown) | -3.54% |
| COc1cc2cnc(-c3ccsc3)c(-c3ccc(F)cc3)c2cc1OC | 14% |
| CCCc1nnc(NS(=O)(=O)c2ccccc2)s1 | 12.5% |
| CCOC(=O)NC(=O)COC(=O)CCCc1nc2ccccc2s1 | 14% |
| COC(=O)CCC(=O)N(C)CC1CCCN(CCc2cccc(C(F)(F)F)c2)C1 (stereo not shown) | -39.9% |
| Cc1cc(C(C)(C)C)cc(C)c1C(=O)O | 1.08% |
| Cc1ccc(S(=O)(=O)NCC(=O)N(CC(=O)NCc2ccco2)Cc2ccccc2)cc1 | 12.8% |
| CCOc1ccc(-n2ccnc2SCC(=O)N2CCCc3ccccc32)cc1 | 10.3% |
| O=S(=O)(NC1CCCC1)c1ccccc1Cl | 2.51% |
| O=C(NC1CC2CCC1C2)C1COc2ccccc2O1 (stereo not shown) | 1.54% |
| O=C(N/N=C/c1cccnc1)c1ccco1 | 10.7% |

| Structure (SMILES) | hERG current change (%, negative = inhibition) at 1uM |
| --- | --- |
| COC(=O)Nc1ccc(S(=O)(=O)n2cnc3ccccc32)cc1 | -12.5% |
| Cc1cc(C(=O)N/N=C/c2cccc3ccccc23)c(C)o1 | 12.5% |
| Cc1cc(C)nc(SCC(=O)N/N=C/c2cccc([N+](=O)[O-])c2)n1 | 0.177% |
| CC(N=C1NS(=O)(=O)c2ccccc21)C(=O)NCc1ccc2c(c1)OCO2 (stereo not shown) | 4.44% |
| O=C(NC1CCc2ccccc21)c1cc(COc2ccc(F)cc2Cl)on1 (stereo not shown) | 0.491% |
| O=C(Nc1cc(S(=O)(=O)N2CCOCC2)ccc1N1CCCC1)c1cnccn1 | 9.29% |
| Cc1ccc(NC(=S)N2CCC(C(N)=O)(N3CCCCC3)CC2)c(C)c1 | 7.67% |
| COCCn1c(-c2ccc(-c3ccc([N+](=O)[O-])cc3Br)o2)nc2c1c(=O)[nH]c(=O)n2CC(C)C | 4.99% |
| COc1ccc(-c2c(-c3ccc(OC)cc3O)nc(C)nc2C(F)(F)F)cc1 | 7.05% |
| CCCCCOc1ccc(CSC(=N)N)cc1[N+](=O)[O-].Cl | -3.45% |
| COCCNC(=O)c1c(N)n(/N=C/c2ccc(F)cc2)c2nc3ccccc3nc12 | 8.7% |
| Cn1c2[n+](c3ccc(Cl)cc3c1=O)Cc1ccccc1-2.[Cl-] | 9.34% |
| Cn1c(C(=O)Nc2ccc3c(c2)OCO3)cc2sccc21 | 1.78% |
| COC(=O)Cc1ccc(NC(=S)NCCSc2ccc(Cl)cc2)cc1 | 7.15% |
| COc1ccc(OC)c(NC(=O)Cn2c(C)nc3ccccc3c2=O)c1 | 10.5% |
| CC(=O)c1ccc(S(=O)(=O)N2CCN(C(C)=O)CC2)cc1 | 9.96% |
| COc1ccccc1C(=O)NC(CCSC)C(=O)OCC(=O)N1CCCC1=O (stereo not shown) | 8.69% |
| CCC1(CC)C(=O)C2=C3C1[C@H](C(=O)OC)C=C(C(=O)OC)C[C@H]3n1c(=O)n(-c3ccccc3)c(=O)n1[C@H]2C (stereo partly shown) | 8.7% |
